# Measurements taken from PubChem BioAssay AID445 (National Center for Advancing Translational Sciences (NCATS), 2006).
# The whole screen tested about 110,000 compounds, of which about 40 (0.04%) were called active. This list was built around the results that the source calls inconclusive (neither active nor inactive); the mix of calls is not that of the screen. Calls come from the whole dose curve; as a rule, active = well fitted curve in the direction sought with a large enough effect in the signal ratio (not every such curve was filed as active); inconclusive = small, poorly fitted or top-dose-only effect, or a change in a side signal; inactive = flat fitted curve, though single readings scatter; the % refers to the signal ratio. Potencies beside an inconclusive call are fits to weak or partial responses and may not hold up.
# Experiment: IkB Signaling;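 for IkBa stabilization activation: 0% = basal untreated cells and 100% = reference inhibitor full response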
# Settings: ABC-DLBCL IkBa-CBG/CBR dual luciferase ratio (green luciferase fused to IkBa over red control in OCI-Ly3 lymphoma cells), 4 h; IkBa stabilization activation: at 57.1 µM (top of the series), scaled: untreated 0%, proteasome inhibitor 100% unless noted
# Method in brief: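 Luminescence ratio of IκBα-fused green versus native red beetle luciferase in OCI-Ly3 cells, 4 h post-doxycycline with compound; red signal alone, scaled from basal (0%) to zero light (-100%), flagged nonspecific or cytotoxic effects.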
# Potency is the fitted concentration of half-maximal effect.
Compound,IkBa stabilization activation,Potency
CC(C)COc1ccc(C(=O)N2CCCCC2CCN2CCOCC2)cc1 (stereo unspecified),inactive: 1.15%,
COC(=O)c1ccccc1NC(=O)C1CCCN(S(=O)(=O)c2ccccc2)C1 (stereo unspecified),inconclusive: -0.361% [signal inhibitor],
CSc1nn(Cc2ccc(F)cc2)c(N(C(C)=O)C(C)=O)c1S(=O)(=O)c1ccccc1,inconclusive: 7.58% [signal inhibitor],
Cc1ccc(C(=O)CSc2nc(C)cc(C)c2C(=O)Nc2cccc(C)c2)cc1,inconclusive: 1.38% [signal inhibitor],
CNC(=O)c1ccc(-c2sc3nc(N4CCOCC4)c4c(c3c2N)CCCC4)o1,inconclusive: -2.47% [signal inhibitor],
CC1CCCN(Cc2nc3c(c(=O)n(C)c(=O)n3C)n2CC(=O)c2ccccc2)C1 (stereo unspecified),,"inconclusive: 12.6 µM [signal inhibitor, partial curve]"
COc1ccc(C(=O)c2ccccc2O)c(O)c1,"inactive: 0.384% [at 25.6 µM, scaled: untreated 0%, proteasome inhibitor 100%]",
CCN(C(=O)CN1C(=O)c2ccccc2Sc2ccc(C(=O)OC)cc21)c1cccc(C)c1,inconclusive: 6.11% [signal inhibitor],
CCC(=O)N1CCc2cc(S(=O)(=O)NC(Cc3ccccc3)C(=O)NCc3ccccc3)ccc21 (stereo unspecified),inactive: 0.67%,
CCCCC[C@H](O)C=C[C@H]1[C@H](O)CC(=O)[C@H]1CCCCCCC(=O)O,inactive: 1.73%,
Nc1ncnc2c1ncn2[C@@H]1O[C@@H](C(=O)NC2CC2)[C@H](O)[C@@H]1O,inconclusive: 3.86% [signal activator],
COc1ccc(NC(=O)c2cnn3c(C(F)(F)F)cc(-c4ccco4)nc23)cc1OC,inactive: -0.542%,
COC(=O)C1CCN(C(=O)COC(=O)c2n[nH]c3ccccc23)CC1,,"inconclusive: 12.6 µM [signal inhibitor, partial curve]"
Cc1ccc(Nc2c(-c3ccccn3)nc3ccc(Br)cn23)cc1,inconclusive: 8.15% [signal inhibitor],
CCC(=O)N1CCc2cc(Br)cc(S(=O)(=O)N3CCCC(C(=O)Nc4ccc(C)c(F)c4)C3)c21 (stereo unspecified),inconclusive: 0.000153% [signal inhibitor],
COc1ccc(C(=O)NCC(c2cccnc2)N2CCN(c3ccccc3)CC2)cc1OC (stereo unspecified),inactive: 1.53%,
Cc1ccc(C(=O)N(Cc2ccc(N(C)C)cc2)CC2CCCO2)cc1 (stereo unspecified),inconclusive: -0.3% [signal inhibitor],
CC(CCc1ccccc1)NC(=O)CSc1n[nH]c(-c2ccccc2)n1 (stereo unspecified),inconclusive: 0.324% [signal inhibitor],
CCCCNC(=O)CCC(=O)NNc1nc2ccccc2c2nc(C)nn12,inactive: -1.15%,
Cc1ccc2ccc3cc(C(=O)N4CCN(c5ccccc5F)CC4)nc3c2[nH]1,inconclusive: -0.203% [signal inhibitor],
COc1ccccc1NC(=O)c1c(-c2ccc(C)cc2)nnc2ccccc12,inconclusive: 14.3% [signal inhibitor],
O=C(O)C1C2CCC(O2)C1C(=O)Nc1cccc(F)c1 (stereo unspecified),inactive: 2.61%,
Cc1cccc(-c2nc(SCc3cc(=O)c4c(C)cc(C)cc4[nH]3)n[nH]2)c1,inactive: 0.272%,
CSc1nsc(SCC(=O)NC2CCCCC2)n1,inconclusive: 10.2% [signal inhibitor],

Compound,IkBa stabilization activation,Potency
O=C(CN1CCOCC1)Nc1ccc(Oc2ccc(NC(=O)CN3CCOCC3)cc2)cc1,inconclusive: 3.08% [signal inhibitor],
CN1CCN(c2ccc(NC(=O)c3cccc(OCc4ccccc4)c3)cc2)CC1,inconclusive: 4.28% [signal inhibitor],
Clc1ccc(C2=Nn3c(nnc3-c3n[nH]c4c3CCC4)SC2)cc1Cl,inactive: 5.71%,
O=C(Cn1ncc2c3ccccc3n(Cc3ccccc3)c2c1=O)NCCc1ccc(Cl)cc1,inactive: -0.257%,
c1ccc2[nH]c(-c3nc4ccccc4[nH]3)nc2c1,,"inconclusive: 15.8 µM [signal inhibitor, partial curve]"
Cc1ccc(N=c2oc3cc(O)ccc3cc2C(N)=O)cc1,,"inconclusive: 12.6 µM [signal inhibitor, partial curve]"
CCCNC(=O)c1ccc2c(c1)N=C(CCC)c1ccccc1S2,inconclusive: 7.44% [signal activator],
Cc1ccc(Cl)cc1-n1ncc2c(NCCc3ccccc3)ncnc21,inconclusive: -3.06% [signal inhibitor],
Cc1cccc(CSc2cn(CC(=O)N3CCOCC3)c3ccccc23)c1,inconclusive: 13.6% [signal inhibitor],
Cc1ccccc1Cn1ccn(-c2ccc(F)c(F)c2)c(=O)c1=O,inactive: -2.19%,
COC(=O)Oc1c(Br)c(=O)oc2ccccc12,inconclusive: 0.561% [signal inhibitor],
Cc1ccc(N2C(=O)CS(=O)(=O)C23C(=O)Nc2ccccc23)cc1C (stereo unspecified),inconclusive: -0.156% [signal inhibitor],
O=C(Nc1ccccc1C(F)(F)F)N1CCOc2ccc(Cl)cc21,inactive: 0.353%,
O=C(c1ccccc1)N(Cc1ccccc1)c1ccccn1,inactive: 2.57%,
CCOC(=O)N1CCC(NC(=O)c2ccc3c(c2)N(Cc2ccccc2C)C(=O)c2ccccc2S3=O)CC1 (stereo unspecified),inconclusive: 3.47% [signal inhibitor],
Cc1ccc(-n2[nH]c(C)c(/C=N/c3ccccn3)c2=O)cc1,inconclusive: 5.26% [signal inhibitor],
CN(Cc1nc(-c2ccc(Cl)cc2)no1)S(=O)(=O)c1ccccc1,inconclusive: 2.96% [signal inhibitor],
Cc1nc2sc3c(c2c2nc(-c4ccco4)nn12)CC(C)(C)OC3,inactive: -3.7%,
N#Cc1cccc(-c2cc(NCc3cccs3)ncn2)c1,"inactive: -3.08% [at 11.4 µM, scaled: untreated 0%, proteasome inhibitor 100%]",
CC(C)c1ccc(C2CC(=O)Nc3cc4c(cc32)OCCO4)cc1 (stereo unspecified),,inconclusive: 39.8 µM [signal inhibitor]
COc1ccc(N2CCN(C(=O)Nc3cn(CC(C)C)c(=O)c4ccccc34)CC2)cc1,inconclusive: -0.872% [signal inhibitor],
COc1ccc(-n2c(SCC(=O)Nc3nccs3)nc3sc4c(c3c2=O)CCN(C)C4)cc1,inconclusive: 9.58% [signal inhibitor],
Cc1c(Cl)cccc1NC(=O)c1cc(-c2ccc3c(c2)OCO3)on1,inconclusive: 15.6% [signal inhibitor],
Cc1nn(-c2ccccc2)c(OC(=O)c2ccccc2)c1S(=O)(=O)c1ccccc1,inconclusive: 7.68% [signal inhibitor],

Compound,IkBa stabilization activation,Potency
O=C(Nc1ccc2c(c1)OCO2)c1ccc(COc2ccc3c(c2)CCC3)o1,inconclusive: 4.43% [signal inhibitor],
COc1c(Cl)cc(C(=O)Nc2cc(-c3nc4ccccc4[nH]3)ccc2C)cc1Cl,inconclusive: 6.04% [signal inhibitor],
COc1cc(C2Nc3ccc4ncccc4c3C3=C2C(=O)CCC3)cc(OC)c1O (stereo unspecified),inactive: 2.46%,
COc1ccc2c(=O)c(C(=O)NCCc3ccc(OC)c(OC)c3)c[nH]c2c1,inactive: 0.34%,
Cc1cccc(Cn2c(=O)n(CCCCC(=O)NCc3ccc4c(c3)OCO4)c(=O)c3ccccc32)c1,inconclusive: 0.561% [signal inhibitor],
Cc1ccc(S(=O)(=O)N2CCN(Cc3ccccc3)CC2)c(C)c1NS(C)(=O)=O,inactive: -0.201%,
COc1cccc(N2CC(O)Cn3c2nc2c3c(=O)n(CCCc3ccccc3)c(=O)n2C)c1 (stereo unspecified),inconclusive: 1.96% [signal inhibitor],
Cc1ccc(NC(=O)/C(C#N)=C/c2ccccc2Cl)cc1C,inconclusive: 5.71% [signal activator],
COc1ccccc1OCCCCn1c(C2CC(=O)N(c3ccccc3Cl)C2)nc2ccccc21 (stereo unspecified),inconclusive: 0.154% [signal inhibitor],
Cc1cc(OCC(=O)NCc2nc(-c3ccccc3)no2)c(C)cc1Br,inactive: -2.26%,
CN(Cc1ccccc1)Cc1c(O)ccc2c(=O)c(-c3ccccc3)c(C(F)(F)F)oc12,inconclusive: 15.5% [signal inhibitor],
CCN(C(=O)c1sc2cc(OC)ccc2c1Cl)c1ccccc1,inconclusive: 7.14% [signal inhibitor],
Cc1ccc(NC(=O)CN2c3ccccc3S(=O)(=O)c3ccccc32)cc1F,inconclusive: -0.532% [signal inhibitor],
Cc1cccc(-c2nnc(NC(=O)c3ccc(Cl)cc3)o2)c1,,active: 7.94 µM
O=C(NCc1ccc(F)cc1)C1CCN(S(=O)(=O)c2ccc3c(c2)CCCN3C(=O)C2CCC2)CC1,inconclusive: 0.393% [signal inhibitor],
Cc1ccccc1C(=O)Oc1cc(-c2ccc3c(c2)OCO3)cc(=O)c2c(C)oc(C)c12,inconclusive: -2.25% [signal inhibitor],
O=C(COc1ccccc1Cl)N(Cc1ccco1)Cc1ccco1,inconclusive: 1.18% [signal inhibitor],
c1cc2c3c(c1)c1c(n3CCNC2)CCCC1,inconclusive: 0.379% [signal inhibitor],
Cc1ccc(S(=O)(=O)c2cnc(SCC(=O)Nc3ccccc3C(F)(F)F)[nH]c2=O)cc1C,inconclusive: 0.439% [signal inhibitor],
C=CCn1c(NCc2ccccc2)nc2ccccc21,inactive: -0.238%,
Cc1ccc(Cl)cc1NC(=O)c1cc2c(=O)n3cccc(C)c3nc2n1C,inconclusive: 1.78% [signal inhibitor],
Cc1cc(C)cc(NC(=O)C2CCCN(c3cnccn3)C2)c1 (stereo unspecified),inconclusive: 2.53% [signal inhibitor],
Cc1ccc(CNc2nc3ccccc3n3nnnc23)cc1,,"inconclusive: 1.58 µM [signal inhibitor, full curve]"
